{
  "source": "paper PMC12136788",
  "binders": {"B1": {"name": "chr11:20128097:20128098:-_ENSMUSG00000044066_ENSMUST00000050611|mus_mus|FALSE|FALSE (ssRNA)", "RNA": "GGGAGUUCUACAGUCCGACGAUCUGCUUUUGACCAAUUCUAGGUUUUAUAGGAUAUUUUACAUUUAACUUAAAUUAUUUGCUAGAAAAGUUUUGUUUUAGCCUCUUGAAAGCACUUUAUGUACCAUGUACAGUAUAAGAAAUACAACAGAGGAUUGAGCAUCA"}, "B2": {"name": "58473482_58473602_2635_ncRNA_ENSMUSG00000026034_ENSMUST00000129577|mouse|control|control (ssRNA)", "RNA": "GGGAGUUCUACAGUCCGACGAUCCUUCUUCUUCAAAAGGGUUUUAUGGCACCUGCUAGCCUUGAACUCAGAGAUCCGCCUGCCUCUGCCUUGGAAAUGCUGGGGAGUUAAAGGUGUCUACCAUCCCCUGACCUUUUAAACCACCAACAGAGGAUUGAGCAUCA"}, "B3": {"name": "chr13:111190716:111190717:+_ENSMUSG00000021701_ENSMUST00000022212|mus_mus|FALSE|FALSE (ssRNA)", "RNA": "GGGAGUUCUACAGUCCGACGAUCCAGUUCCAAGUCUUCCAACUGAAGACGCUCUCAACAGAGAGAACUUCAGAGUCAAUGCAUCUUUCUGAAAAACUGUCCCAUAAACCUUUUCACGACAGGUAUCUCAGGGAAAACUGCACUCAACAGAGGAUUGAGCAUCA"}, "B4": {"name": "chr7:75932113:75932114:+_ENSG00000106211_ENST00000248553|hu_hu|hu_hu_hu_mus_False|18_18 (ssRNA)", "RNA": "GGGAGUUCUACAGUCCGACGAUCCUGCGACCACUCAUCGGGCAACCGGGGCACCCCGAAAGCUUGAUCGAAGAGGCGGCUGUGUGCAGGGUACCAGUCCCGGAAUGGUUCCCAGCUGCCCCGCAGGAGCAGCGAGAAGGGCACCAACAGAGGAUUGAGCAUCA"}, "B5": {"name": "chr1:184392483:184392484:+_ENSMUSG00000026510_ENSMUST00000117245|mus_hu|motif|central (ssRNA)", "RNA": "GGGAGUUCUACAGUCCGACGAUCUUUUAAAGUCAGCUAUGAUCUUGACAAAUAUUACGGGUAAGUCUGUAGCAAGUUUCGGAUUUCUGAGAUACAAAAGACAAUAAAUACAGAUUAAAAUUCAGCCUACAAACAAGAUUCUACCAACAGAGGAUUGAGCAUCA"}, "B6": {"name": "50188117_50245300_635_CDS_ENSG00000121274_ENST00000436909|human|control|control (ssRNA)", "RNA": "GGGAGUUCUACAGUCCGACGAUCCCGCAUCUUCUCCUCCUCAGGUCUUGGAGACAUGUAUUCAUAAAAAUCACUGAUUUCUUCAUGCAGACCCACGACUCCCUGGUUGUAGUUCCUCCGUUUCCACGGGGUCCCGCUGUACACCAACAGAGGAUUGAGCAUCA"}, "B7": {"name": "chr14:89343726:89343727:+_ENSG00000165533_ENST00000346301|hu_hu|FALSE|FALSE (ssRNA)", "RNA": "GGGAGUUCUACAGUCCGACGAUCAGACAUAGUGCUUUUUUCCCCUUGCAUAAUGCUGCUUCAUAAGAACAUAUGUGGUCUAAGGAACAAUCAGAGCAUAGCAAAAUGCUGCCUUAAUUGUUUAAUUAAAUGUUGUGUGUCCACCAACAGAGGAUUGAGCAUCA"}, "B8": {"name": "chr1:133829981:133829982:+_ENSMUSG00000026434_ENSMUST00000062264|mus_mus|motif|central (ssRNA)", "RNA": "GGGAGUUCUACAGUCCGACGAUCGAACUGUAAUUAGAAAAUAUACCUUCAAUCUAAUGAGUUAGUUUUAAAAGGAAUUCGGAACAAGUCCAAUCAGACACACCUUUUACACAAGUAACGUAGAAGAUAGUAUUAUUUCUCAAUCAACAGAGGAUUGAGCAUCA"}, "B9": {"name": "chr18:33606911:33606912:-_ENSG00000141425_ENST00000399022|hu_hu|FALSE|FALSE (ssRNA)", "RNA": "GGGAGUUCUACAGUCCGACGAUCUUCCAAUUUAUGCUCUUUCUCUGCAAGGGCUUCCUUUUGACAACGAAGAAAAUCUGCUAACAUUCGAGUGAGUUGCUUUCUAUCAUCUAUUUCUGCCGCCAAUCUGCCAUUGUAAUCUGCCAACAGAGGAUUGAGCAUCA"}, "B10": {"name": "chr3:10015032:10015033:+_ENSMUSG00000027533_ENSMUST00000029046|mus_mus|mus_mus_mus_hu_True|58_98 (ssRNA)", "RNA": "GGGAGUUCUACAGUCCGACGAUCGUUUUUACCAUCACACGUAAUGAUACAAUCUGGCUUGGCCAUUGCGCCCAUUUUCCUAAGAGCUAUUCCCACUCCUAGCUCCUUCAUGUAUUCAUCAAAGCCUUUGCUGUCCACCAGGCGCAACAGAGGAUUGAGCAUCA"}, "B11": {"name": "chr11:75578393:75578394:+_ENSMUSG00000020849_ENSMUST00000067664|mus_mus|motif|central (ssRNA)", "RNA": "GGGAGUUCUACAGUCCGACGAUCCAAUACAGUAAUGCUGAAAAAGCCUCUAUGCAGUCCUGUUAGUGUCGUAAAGAACCGGAAGCUGGGACCAGUAAAAUCCACAGAAAUUCACUCUUGCCUUAAGAACUUCUGAAAACUGUUCAACAGAGGAUUGAGCAUCA"}, "B12": {"name": "chr2:32086683:32086684:+_ENSMUSG00000039262_ENSMUST00000036691|mus_mus|FALSE|FALSE (ssRNA)", "RNA": "GGGAGUUCUACAGUCCGACGAUCUGACCACUGGGGACAGCAGAGCAGAGAGAGGACAGCGAGGACCAUAUAAAAGUUCAGCUAUACAGAUGUAGCUAGCAUUUUGUUCUCAUUUCCCCUUUGUAAAAACCUUAGCUGCUUUUUCAACAGAGGAUUGAGCAUCA"}, "B13": {"name": "chr6:41757443:41757444:+_ENSG00000214736_ENST00000398881|hu_mus|hu_hu_hu_mus_False|88_98 (ssRNA)", "RNA": "GGGAGUUCUACAGUCCGACGAUCGAACCGUGCAGAGACCAGAGAAUGGAAUUCUGCGGGGGAUGGGGGGGCAGUGGGGGGGGGUUCAGGCAAGGAGAGGGAGUCAACUUCAGCUGCCACUCAGGUAGGAUCUUGUGGUCACAGCAACAGAGGAUUGAGCAUCA"}, "B14": {"name": "chr17:23961646:23961647:+_ENSMUSG00000039218_ENSMUST00000088621|mus_mus|FALSE|FALSE (ssRNA)", "RNA": "GGGAGUUCUACAGUCCGACGAUCGCAUUUCUCAUUUUUAUUUGACAGAAAAAGUUGCUUUUACUGUACAGAUUUUAAAAAACCAAAAUGCCUUAAACAAAGUUGGGGGGGAGAGGGCCUCACAACCUUGUAAGGGGGUGCAGCCAACAGAGGAUUGAGCAUCA"}, "B15": {"name": "chr8:94190273:94190274:+_ENSMUSG00000055932_ENSMUST00000069718|mus_mus|FALSE|FALSE (ssRNA)", "RNA": "GGGAGUUCUACAGUCCGACGAUCGGAUCUUGCUUCCAGCAGCUGGCCUCUGAGCUCGGAAACCACGUCUGUGAGGUCAAAGGGCAGAGGCAUGGAAGGGUCAUCCUUCUCCCAAUAUGGCCGGCAGUCUGGUUUCUGCUGUACCAACAGAGGAUUGAGCAUCA"}, "B16": {"name": "chrX:71549762:71549763:+_ENSMUSG00000019087_ENSMUST00000019231|mus_mus|mus_mus_mus_hu_False|78_108 (ssRNA)", "RNA": "GGGAGUUCUACAGUCCGACGAUCAAAGUGUACCACUUCUUAUUGUUAGCACAACAUUCCCCCCCAACGAUAACGACAGCCAAGCAGGACAGACAGUUAAGUAGUACUUCCACACUCCCAAACUCAGGGAGCCCUAUAACCUUACAACAGAGGAUUGAGCAUCA"}, "B17": {"name": "chr16:94690093:94690094:+_ENSMUSG00000040785_ENSMUST00000117648|mus_hu|mus_mus_mus_hu_True|48_58 (ssRNA)", "RNA": "GGGAGUUCUACAGUCCGACGAUCGGGCUGGGAUGACGGACACACAGCCUCGAUUCCAGGGGGAAAAAGUCUUAGUCAAUACUAAUUUAAAAAGUAUAAUGAUUUUUGAAAAUCAGAUUACAUCUAUAAAAGAUGAAAAGCAAACAACAGAGGAUUGAGCAUCA"}, "B18": {"name": "chr4:73765705:73765706:+_ENSMUSG00000049122_ENSMUST00000084474|mus_mus|motif|central (ssRNA)", "RNA": "GGGAGUUCUACAGUCCGACGAUCGUACCUUGUGAGCUCUUCUUUAAUCUUCAAGGGUUCAUGUGGGUAGAAUUUCACUCGGAAGCACAUGGUGUAUGGUGGAUGAGAUUUCAUUUGCUUGAAGAUGGACUUGUUAGGCUCAAGCAACAGAGGAUUGAGCAUCA"}, "B19": {"name": "125897355_125903701_618_CDS_ENSMUSG00000030982_ENSMUST00000106553|mouse|control|control (ssRNA)", "RNA": "GGGAGUUCUACAGUCCGACGAUCACUCGUGUCUGACAGCAGCUUUGAACACUGGAUGACGAUCUUCAGAGCCUUCACCUUCUGGUCCGAGGCCCAGGCAUCCUUCAGAGACUGGUUGAGCUCCUCUAUGCGGUUCACAUAAUCCAACAGAGGAUUGAGCAUCA"}, "B20": {"name": "127909868_127909988_3041_3pUTR_ENSG00000119414_ENST00000373547|human|control|control (ssRNA)", "RNA": "GGGAGUUCUACAGUCCGACGAUCAUAAGGAAUGGAGAGAAUAUUAUUGGCACGUGCCCAACUAGUGACAAACAAAUGCAGUACACAAUGACUUAAAAAUAAAAGUCACAUUAUAGGGAUAACAAAAACAACUACAUCAAUCUACAACAGAGGAUUGAGCAUCA"}, "B21": {"name": "chr19:16212804:16212805:+_ENSG00000167460_ENST00000300933|hu_mus|hu_hu_hu_mus_False|8_58 (ssRNA)", "RNA": "GGGAGUUCUACAGUCCGACGAUCAACAAUUCUGGAGUGAAGGAAAGAUGUAACAUGGAACAGCAUUAAAGCUCAGUAUUACUAUAUAUGGGCAACAAUGAUCACCCCAGCAUUCUCGCUUGGAAUGUGCUUGAGAAAUCUGUUCAACAGAGGAUUGAGCAUCA"}, "B22": {"name": "chrX:140292434:140292435:-_ENSMUSG00000031285_ENSMUST00000033642|mus_mus|motif|central (ssRNA)", "RNA": "GGGAGUUCUACAGUCCGACGAUCAAAGACCUAAACAUUCAUGAGCUGUAAGGACAGUGCUUGAAAAGAUCUACUGAGACGGAAACAGGAAAAAAAAAAAGAAAGGGUCAGAAUCAGGUUGUUUUCUACCAACCUACUUGUGACCAACAGAGGAUUGAGCAUCA"}},
  "note": "The list shows a part of the results.",
  "data": [
    {"target": "T1, UNK ZnF1-3 (human, UniProt Q9C0B0 31-174)", "T1 sequence": "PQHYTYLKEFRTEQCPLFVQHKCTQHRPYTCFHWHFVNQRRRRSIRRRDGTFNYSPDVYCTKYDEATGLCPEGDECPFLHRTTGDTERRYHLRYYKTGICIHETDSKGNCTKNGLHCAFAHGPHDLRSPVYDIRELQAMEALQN", "experiment": "nsRBNS (natural sequence RNA bind-n-seq); RBNS binding buffer (assumed for nsRBNS): 25 mM Tris pH 7.5, 150 mM KCl, 3 mM MgCl2, 0.01% Triton X-100, 500 ug/ml BSA, 20 U/ml SUPERase-In, 4 C; UNK is unkempt and MSI1 is Musashi-1; names of the RNAs are library labels; protein concentration not given here; high values mean tight binding", "units": {"binding signal": "enrichment R"}, "values": [
      {"binder": "B1", "binding signal": 0.709},
      {"binder": "B2", "binding signal": 1.24},
      {"binder": "B3", "binding signal": 0.665},
      {"binder": "B4", "binding signal": 0.89},
      {"binder": "B5", "binding signal": 1.19},
      {"binder": "B6", "binding signal": 0.992},
      {"binder": "B7", "binding signal": 1.74},
      {"binder": "B8", "binding signal": 0.788},
      {"binder": "B9", "binding signal": 0.639},
      {"binder": "B10", "binding signal": 0.645},
      {"binder": "B11", "binding signal": 1.36},
      {"binder": "B12", "binding signal": 1.28},
      {"binder": "B13", "binding signal": 1.56},
      {"binder": "B14", "binding signal": 0.68},
      {"binder": "B15", "binding signal": 0.615},
      {"binder": "B16", "binding signal": 1.69},
      {"binder": "B17", "binding signal": 0.861},
      {"binder": "B18", "binding signal": 0.743},
      {"binder": "B19", "binding signal": 0.9},
      {"binder": "B20", "binding signal": 1.13},
      {"binder": "B21", "binding signal": 1.32},
      {"binder": "B22", "binding signal": 1.45}
    ]}
  ]
}
